± gives the standard deviation of the averaged measurements. Laboratory Escherichia coli strains with one amino-acid change in an essential protein, pooled on minimal glucose agar with carbenicillin or gentamicin at twice the control MIC (plus kanamycin and chloramphenicol for the plasmids), 48 h. Fold change of barcode share against drug-free plates; higher = less susceptible. Active = above 20 in both replicates (the paper's putatively resistant). '<' = one read or none on drug, '>' = one read or none on a drug-free plate. Shares are relative, so most strains fall below 1 when a few take over. Listed are strains with at least 15 reads on both drug-free plates, and hits; most hits rest on fewer reference reads. Replicate rank correlation about 0.5. Edits are read from barcodes.
Molecular target: Escherichia coli (laboratory strain)
Experiment: barcode share on antibiotic plates over drug-free plates; higher = less susceptible
Experimental: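 A pool of E. coli strains, each edited to carry one amino-acid change in an essential protein, was grown for 48 h on minimal glucose agar with or without antibiotic; strain barcodes were sequenced; mean of two replicates.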

[1] = antibiotic: carbenicillin, 2× MIC (3.1 µg/mL)
[2] = antibiotic: gentamicin, 2× MIC (MIC 0.45 µg/mL)

B1: ispE V146Q (protein)
chain: MRTQWPSPAKLNLFLYITGQRADGYHTLQTLFQFLDYGDTISIELRDDGDIRLLTPVEGVEHEDNLIVRAARLLMKTAADSGRLPTGSGANISIDKRLPMGGGLGGGSSNAATVLVALNHLWQCGLSMDELAEMGLTLGADVPVFQRGHAAFAEGVGEILTPVDPPEKWYLVAHPGVSIPTPVIFKDPELPRNTPKRSIETLLKCEFSNDCEVIARKRFREVDAVLSWLLEYAPSRLTGTGACVFAEFDTESEARQVLEQAPEWLNGFVAKGANLSPLHRAML
[1]
  fold change of barcode share: 0.486 ± 0.064
[2]
  fold change of barcode share: 0.0307 ± 0.03

B2: ispE V156P (protein)
chain: MRTQWPSPAKLNLFLYITGQRADGYHTLQTLFQFLDYGDTISIELRDDGDIRLLTPVEGVEHEDNLIVRAARLLMKTAADSGRLPTGSGANISIDKRLPMGGGLGGGSSNAATVLVALNHLWQCGLSMDELAEMGLTLGADVPVFVRGHAAFAEGPGEILTPVDPPEKWYLVAHPGVSIPTPVIFKDPELPRNTPKRSIETLLKCEFSNDCEVIARKRFREVDAVLSWLLEYAPSRLTGTGACVFAEFDTESEARQVLEQAPEWLNGFVAKGANLSPLHRAML
[1]
  fold change of barcode share: 0.483 ± 0.14

B3: ispE V156A (protein)
chain: MRTQWPSPAKLNLFLYITGQRADGYHTLQTLFQFLDYGDTISIELRDDGDIRLLTPVEGVEHEDNLIVRAARLLMKTAADSGRLPTGSGANISIDKRLPMGGGLGGGSSNAATVLVALNHLWQCGLSMDELAEMGLTLGADVPVFVRGHAAFAEGAGEILTPVDPPEKWYLVAHPGVSIPTPVIFKDPELPRNTPKRSIETLLKCEFSNDCEVIARKRFREVDAVLSWLLEYAPSRLTGTGACVFAEFDTESEARQVLEQAPEWLNGFVAKGANLSPLHRAML
[1]
  fold change of barcode share: 2.19 ± 0.62
[2]
  fold change of barcode share: 0.00906 ± 0.0067

B4: ispE L115Q (protein)
chain: MRTQWPSPAKLNLFLYITGQRADGYHTLQTLFQFLDYGDTISIELRDDGDIRLLTPVEGVEHEDNLIVRAARLLMKTAADSGRLPTGSGANISIDKRLPMGGGLGGGSSNAATVQVALNHLWQCGLSMDELAEMGLTLGADVPVFVRGHAAFAEGVGEILTPVDPPEKWYLVAHPGVSIPTPVIFKDPELPRNTPKRSIETLLKCEFSNDCEVIARKRFREVDAVLSWLLEYAPSRLTGTGACVFAEFDTESEARQVLEQAPEWLNGFVAKGANLSPLHRAML
[1]
  fold change of barcode share: 0.303 ± 0.0051
[2]
  fold change of barcode share: 0.00664 ± 0.00048

B5: ispE L229W (protein)
chain: MRTQWPSPAKLNLFLYITGQRADGYHTLQTLFQFLDYGDTISIELRDDGDIRLLTPVEGVEHEDNLIVRAARLLMKTAADSGRLPTGSGANISIDKRLPMGGGLGGGSSNAATVLVALNHLWQCGLSMDELAEMGLTLGADVPVFVRGHAAFAEGVGEILTPVDPPEKWYLVAHPGVSIPTPVIFKDPELPRNTPKRSIETLLKCEFSNDCEVIARKRFREVDAVLSWWLEYAPSRLTGTGACVFAEFDTESEARQVLEQAPEWLNGFVAKGANLSPLHRAML
[1]
  fold change of barcode share: 0.518 ± 0.039
[2]
  fold change of barcode share: 0.0104 ± 0.0087

B6: ispE L229Q (protein)
chain: MRTQWPSPAKLNLFLYITGQRADGYHTLQTLFQFLDYGDTISIELRDDGDIRLLTPVEGVEHEDNLIVRAARLLMKTAADSGRLPTGSGANISIDKRLPMGGGLGGGSSNAATVLVALNHLWQCGLSMDELAEMGLTLGADVPVFVRGHAAFAEGVGEILTPVDPPEKWYLVAHPGVSIPTPVIFKDPELPRNTPKRSIETLLKCEFSNDCEVIARKRFREVDAVLSWQLEYAPSRLTGTGACVFAEFDTESEARQVLEQAPEWLNGFVAKGANLSPLHRAML
[1]
  fold change of barcode share: 0.583 ± 0.19
[2]
  fold change of barcode share: < 0.00472

B7: ispE L115A (protein)
chain: MRTQWPSPAKLNLFLYITGQRADGYHTLQTLFQFLDYGDTISIELRDDGDIRLLTPVEGVEHEDNLIVRAARLLMKTAADSGRLPTGSGANISIDKRLPMGGGLGGGSSNAATVAVALNHLWQCGLSMDELAEMGLTLGADVPVFVRGHAAFAEGVGEILTPVDPPEKWYLVAHPGVSIPTPVIFKDPELPRNTPKRSIETLLKCEFSNDCEVIARKRFREVDAVLSWLLEYAPSRLTGTGACVFAEFDTESEARQVLEQAPEWLNGFVAKGANLSPLHRAML
[1]
  fold change of barcode share: 0.538 ± 0.33
[2]
  fold change of barcode share: 0.0028 ± 0.00033

B8: ispE L115P (protein)
chain: MRTQWPSPAKLNLFLYITGQRADGYHTLQTLFQFLDYGDTISIELRDDGDIRLLTPVEGVEHEDNLIVRAARLLMKTAADSGRLPTGSGANISIDKRLPMGGGLGGGSSNAATVPVALNHLWQCGLSMDELAEMGLTLGADVPVFVRGHAAFAEGVGEILTPVDPPEKWYLVAHPGVSIPTPVIFKDPELPRNTPKRSIETLLKCEFSNDCEVIARKRFREVDAVLSWLLEYAPSRLTGTGACVFAEFDTESEARQVLEQAPEWLNGFVAKGANLSPLHRAML
[1]
  fold change of barcode share: 0.2677 ± 0.0015
[2]
  fold change of barcode share: 5.85 ± 0.5

B9: ispE F145Q (protein)
chain: MRTQWPSPAKLNLFLYITGQRADGYHTLQTLFQFLDYGDTISIELRDDGDIRLLTPVEGVEHEDNLIVRAARLLMKTAADSGRLPTGSGANISIDKRLPMGGGLGGGSSNAATVLVALNHLWQCGLSMDELAEMGLTLGADVPVQVRGHAAFAEGVGEILTPVDPPEKWYLVAHPGVSIPTPVIFKDPELPRNTPKRSIETLLKCEFSNDCEVIARKRFREVDAVLSWLLEYAPSRLTGTGACVFAEFDTESEARQVLEQAPEWLNGFVAKGANLSPLHRAML
[1]
  fold change of barcode share: 0.488 ± 0.11
[2]
  fold change of barcode share: 0.0124 ± 0.011

B10: ispE V156W (protein)
chain: MRTQWPSPAKLNLFLYITGQRADGYHTLQTLFQFLDYGDTISIELRDDGDIRLLTPVEGVEHEDNLIVRAARLLMKTAADSGRLPTGSGANISIDKRLPMGGGLGGGSSNAATVLVALNHLWQCGLSMDELAEMGLTLGADVPVFVRGHAAFAEGWGEILTPVDPPEKWYLVAHPGVSIPTPVIFKDPELPRNTPKRSIETLLKCEFSNDCEVIARKRFREVDAVLSWLLEYAPSRLTGTGACVFAEFDTESEARQVLEQAPEWLNGFVAKGANLSPLHRAML
[1]
  fold change of barcode share: 0.234 ± 0.013
[2]
  fold change of barcode share: 1.11 ± 1.5

B11: ispE V156Q (protein)
chain: MRTQWPSPAKLNLFLYITGQRADGYHTLQTLFQFLDYGDTISIELRDDGDIRLLTPVEGVEHEDNLIVRAARLLMKTAADSGRLPTGSGANISIDKRLPMGGGLGGGSSNAATVLVALNHLWQCGLSMDELAEMGLTLGADVPVFVRGHAAFAEGQGEILTPVDPPEKWYLVAHPGVSIPTPVIFKDPELPRNTPKRSIETLLKCEFSNDCEVIARKRFREVDAVLSWLLEYAPSRLTGTGACVFAEFDTESEARQVLEQAPEWLNGFVAKGANLSPLHRAML
[1]
  fold change of barcode share: 0.222 ± 0.074
[2]
  fold change of barcode share: 0.00751 ± 0.005

B12: ispE L229A (protein)
chain: MRTQWPSPAKLNLFLYITGQRADGYHTLQTLFQFLDYGDTISIELRDDGDIRLLTPVEGVEHEDNLIVRAARLLMKTAADSGRLPTGSGANISIDKRLPMGGGLGGGSSNAATVLVALNHLWQCGLSMDELAEMGLTLGADVPVFVRGHAAFAEGVGEILTPVDPPEKWYLVAHPGVSIPTPVIFKDPELPRNTPKRSIETLLKCEFSNDCEVIARKRFREVDAVLSWALEYAPSRLTGTGACVFAEFDTESEARQVLEQAPEWLNGFVAKGANLSPLHRAML
[1]
  fold change of barcode share: 0.382 ± 0.01
[2]
  fold change of barcode share: 0.00586 ± 0.0026

B13: ispE F145A (protein)
chain: MRTQWPSPAKLNLFLYITGQRADGYHTLQTLFQFLDYGDTISIELRDDGDIRLLTPVEGVEHEDNLIVRAARLLMKTAADSGRLPTGSGANISIDKRLPMGGGLGGGSSNAATVLVALNHLWQCGLSMDELAEMGLTLGADVPVAVRGHAAFAEGVGEILTPVDPPEKWYLVAHPGVSIPTPVIFKDPELPRNTPKRSIETLLKCEFSNDCEVIARKRFREVDAVLSWLLEYAPSRLTGTGACVFAEFDTESEARQVLEQAPEWLNGFVAKGANLSPLHRAML
[1]
  fold change of barcode share: 0.383 ± 0.034
[2]
  fold change of barcode share: 0.00914 ± 0.0032

B14: ispE F145P (protein)
chain: MRTQWPSPAKLNLFLYITGQRADGYHTLQTLFQFLDYGDTISIELRDDGDIRLLTPVEGVEHEDNLIVRAARLLMKTAADSGRLPTGSGANISIDKRLPMGGGLGGGSSNAATVLVALNHLWQCGLSMDELAEMGLTLGADVPVPVRGHAAFAEGVGEILTPVDPPEKWYLVAHPGVSIPTPVIFKDPELPRNTPKRSIETLLKCEFSNDCEVIARKRFREVDAVLSWLLEYAPSRLTGTGACVFAEFDTESEARQVLEQAPEWLNGFVAKGANLSPLHRAML
[1]
  fold change of barcode share: 0.509 ± 0.12
[2]
  fold change of barcode share: 7.85 ± 7.8

B15: ispE L115W (protein)
chain: MRTQWPSPAKLNLFLYITGQRADGYHTLQTLFQFLDYGDTISIELRDDGDIRLLTPVEGVEHEDNLIVRAARLLMKTAADSGRLPTGSGANISIDKRLPMGGGLGGGSSNAATVWVALNHLWQCGLSMDELAEMGLTLGADVPVFVRGHAAFAEGVGEILTPVDPPEKWYLVAHPGVSIPTPVIFKDPELPRNTPKRSIETLLKCEFSNDCEVIARKRFREVDAVLSWLLEYAPSRLTGTGACVFAEFDTESEARQVLEQAPEWLNGFVAKGANLSPLHRAML
[1]
  fold change of barcode share: 0.631 ± 0.13
[2]
  fold change of barcode share: 0.0133 ± 0.006

— the supplement of paper PMC11876631
